Data: the BET-seq Pho4 binding data (Le et al. 2018)
The list shows a part of the results. These are noisy estimates, calculated here from bound and input reads.

The sequences below were run against T1, Pho4 (S. cerevisiae) (UniProt P07270) (assay: relative binding free energy (BET-seq); higher = weaker binding). Settings: reference: library average.
T1 sequence: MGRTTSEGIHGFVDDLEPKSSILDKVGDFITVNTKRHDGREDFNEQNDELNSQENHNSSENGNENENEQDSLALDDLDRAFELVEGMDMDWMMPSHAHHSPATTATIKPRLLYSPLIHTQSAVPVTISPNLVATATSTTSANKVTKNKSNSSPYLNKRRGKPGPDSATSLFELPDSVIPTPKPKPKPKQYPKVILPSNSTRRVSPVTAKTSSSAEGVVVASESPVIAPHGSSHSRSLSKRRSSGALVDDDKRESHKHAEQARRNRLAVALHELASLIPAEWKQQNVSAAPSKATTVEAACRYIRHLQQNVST

Sequence | relative binding free energy
GAGCGCACGTGGCGGG | -0.23 kcal/mol
TATATCACGTGAAGGT | 0.29 kcal/mol
GATGTCACGTGCAGTG | 0.11 kcal/mol
ACGGTCACGTGGGCTT | -0.04 kcal/mol
ATGTGCACGTGTAGAA | -0.13 kcal/mol
TGTTTCACGTGAGCTC | 0.32 kcal/mol
CGTGGCACGTGTGCTT | -0.07 kcal/mol
ATTAGCACGTGATGGA | 0.05 kcal/mol
TCTTGCACGTGTGTAT | -0.11 kcal/mol
CGGATCACGTGGGCGT | -0.05 kcal/mol
TAGTTCACGTGGGTAG | 0.14 kcal/mol
ATGTTCACGTGTTATA | 0.32 kcal/mol
TGCGTCACGTGGTTTT | 0.04 kcal/mol
TTGTACACGTGGGGAA | -0.04 kcal/mol
TGTGGCACGTGAATAA | 0.02 kcal/mol
TGTGACACGTGTGTAT | 0.04 kcal/mol
TGTATCACGTGCTCGG | 0.19 kcal/mol
TTAGACACGTGTTTGA | -0.06 kcal/mol
TCTGTCACGTGGGATG | -0.06 kcal/mol
ATGGCCACGTGGAGGC | -0.06 kcal/mol
GCAGGCACGTGTGGGT | -0.06 kcal/mol
AGTCACACGTGGGTTG | 0.04 kcal/mol
CGGTTCACGTGTTCGG | 0.27 kcal/mol

Sequence | relative binding free energy
TCGTGCACGTGGTAGG | -0.03 kcal/mol
TGACGCACGTGGTAGG | -0.2 kcal/mol
CGATTCACGTGTGGTG | 0.29 kcal/mol
TTCGTCACGTGATAAT | 0.19 kcal/mol
TAGGGCACGTGGGGAG | -0.31 kcal/mol
CGTGGCACGTGGGATA | -0.27 kcal/mol
TATGACACGTGAAATT | 0.36 kcal/mol
ACGTTCACGTGGAGGA | 0.24 kcal/mol
AGTAGCACGTGTGGAG | 0 kcal/mol
GGTTTCACGTGCGTTT | 0.21 kcal/mol
GTGGCCACGTGGTAGT | -0.03 kcal/mol
TGATGCACGTGATTCT | 0.12 kcal/mol
TGGAGCACGTGTACTG | 0.08 kcal/mol
TTATACACGTGTGGGG | 0.08 kcal/mol
AGCGGCACGTGGGTGA | -0.27 kcal/mol
TTGTGCACGTGTTGCT | -0.06 kcal/mol
CGATGCACGTGTGCGG | -0.05 kcal/mol
CTGTGCACGTGAGTGT | -0.07 kcal/mol
CAGAGCACGTGTGGGG | -0.04 kcal/mol
AGTTGCACGTGGTCTA | -0.11 kcal/mol
ATCAGCACGTGGGTGT | -0.2 kcal/mol
TTGTACACGTGCTTTG | 0.06 kcal/mol
TAGTGCACGTGGGTTG | -0.17 kcal/mol

Sequence | relative binding free energy
TTGAACACGTGGGATG | -0.07 kcal/mol
TACTTCACGTGGGCTT | 0.19 kcal/mol
GAAGTCACGTGCGGGT | 0.14 kcal/mol
CTTGTCACGTGCGTGA | 0.05 kcal/mol
TGGACCACGTGTGTGT | 0.02 kcal/mol
TCTGTCACGTGGTGAC | 0.1 kcal/mol
TGGTTCACGTGAGCGT | 0.27 kcal/mol
TAAGACACGTGTGTAT | -0.02 kcal/mol
TGGTTCACGTGGCCGT | 0.09 kcal/mol
TGTTACACGTGTCGTT | 0.27 kcal/mol
GTAGGCACGTGTTTTG | -0.03 kcal/mol
AGAGGCACGTGAAGCG | 0.05 kcal/mol
TTTTACACGTGGGTAT | 0.06 kcal/mol
GGGGGCACGTGGCACA | -0.23 kcal/mol
TTTGGCACGTGGGAGT | -0.14 kcal/mol
ATGCGCACGTGTGTAT | -0.14 kcal/mol
TGGAACACGTGAGTAG | 0.3 kcal/mol
GGTTCCACGTGAGTTT | 0.42 kcal/mol
TTAGTCACGTGGGAAC | 0.16 kcal/mol
GGTTTCACGTGTTCAT | 0.38 kcal/mol
AGGAGCACGTGGCAGG | -0.28 kcal/mol
AGGGTCACGTGATCAT | 0.2 kcal/mol
GGGTACACGTGTGTGC | 0.07 kcal/mol

Sequence | relative binding free energy
TCGGCCACGTGGAGTG | -0.08 kcal/mol
GCTGGCACGTGATGGC | 0.14 kcal/mol
GTTCGCACGTGTGCTT | 0.04 kcal/mol
ATGAGCACGTGACTGT | 0.06 kcal/mol
TGAGGCACGTGGATCT | 0 kcal/mol
AAGTGCACGTGGGGTC | -0.06 kcal/mol
ATAAGCACGTGGATGT | -0.12 kcal/mol
CGTGGCACGTGTCGTA | -0.02 kcal/mol
CAGTGCACGTGGTTAA | -0.02 kcal/mol
CTGTTCACGTGATATT | 0.41 kcal/mol
AGTGGCACGTGTGGCC | -0.1 kcal/mol
GTGTTCACGTGCGGCG | 0.22 kcal/mol
TCTTACACGTGTGAGT | 0.19 kcal/mol
TTTTGCACGTGTGTCA | 0.05 kcal/mol
ACTAGCACGTGTGAGT | 0.11 kcal/mol
CGTGTCACGTGGGGGG | -0.04 kcal/mol
TCTATCACGTGTGAGT | 0.21 kcal/mol
CACTGCACGTGTGGGG | -0.08 kcal/mol
ACTATCACGTGGTTTT | 0.23 kcal/mol
AAGTGCACGTGTGTCG | 0.02 kcal/mol
AGGGTCACGTGTACAA | 0.15 kcal/mol
GCATGCACGTGGTGCG | -0.11 kcal/mol
ACATTCACGTGGGGCG | 0.2 kcal/mol

Sequence | relative binding free energy
GTTAACACGTGGTTAT | -0.08 kcal/mol
GGTGGCACGTGAGGTC | 0.11 kcal/mol
CGTGACACGTGAGGCT | 0.15 kcal/mol
CTGGTCACGTGGAGGT | 0.04 kcal/mol
AGTGACACGTGAGAGG | 0.17 kcal/mol
CTTGGCACGTGGGGTC | -0.31 kcal/mol
CGTCACACGTGGTGTG | -0.23 kcal/mol
TATAACACGTGTTGCG | -0.05 kcal/mol
TTTGGCACGTGTCGCA | -0.14 kcal/mol
ACAGTCACGTGGGATA | 0.05 kcal/mol
GGGGGCACGTGTCCTT | -0.11 kcal/mol
GAGTTCACGTGGTGGG | 0.29 kcal/mol
GGTACCACGTGGGGGA | -0.23 kcal/mol
TTTTTCACGTGGCCTG | 0.25 kcal/mol
CTTTTCACGTGGTCAG | 0.2 kcal/mol
GGGGTCACGTGACGGT | 0.32 kcal/mol
TTATGCACGTGCGCGT | -0.26 kcal/mol
CTTGACACGTGAGGAG | 0.35 kcal/mol
CGTTTCACGTGGATTA | 0.2 kcal/mol
TTGGGCACGTGGTTAG | -0.15 kcal/mol
GGTGGCACGTGATGCA | -0.01 kcal/mol
GGGGGCACGTGGTAGA | -0.1 kcal/mol
GATTTCACGTGTGTTT | 0.26 kcal/mol
